Measured values published in the supplement of paper PMC11417369.
± gives the standard deviation of the averaged measurements. Some of the results follow.

The sequences below were run on PfAP2-LT AP2 domain (GST-tagged) (assay: gcPBM binding intensity (ln(normalized median fluorescence intensity)); higher = stronger DNA binding).
Procedure, shortened: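 Binding intensity is the highest Masliner-normalised natural-log median intensity over replicate spots in either probe orientation. To obtain it, GST-tagged P. falciparum DNA-binding domains made in E. coli were incubated for 1 h on an Agilent 4 × 180k array of primer-extended double-stranded 36-bp intergenic genomic probes plus negative controls. Detection used Alexa488 anti-GST antibody with scanning at 488 nm.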

Row | Sequence | gcPBM binding intensity (ln)
1 | CATACAATAAATATGGTGCATTTTATGTAACCGTTT [GTGCAC_site9420] | 8.82 ± 0.42
2 | TGAACATATTAAAATTGTACATATGCACAATATGTA [XGTACX_site6801] | 8.76 ± 0.41
3 | AAGGATATAACATACACACACACACGGATATAAATA [CACACA_site7867] | 10.2 ± 0.37
4 | CATCTAAATTGTAGTTGTACACCTTAATCTTATTAC [XGTACX_site7547] | 8.93 ± 0.54
5 | TATTTTATCATTTGCACACGCACACCGACATAAAAA [CACACA_site4348] | 9.26 ± 0.28
6 | ATAAAAATATGATCAACACACGATTAAATATTCATA [CACACA_site1495] | 8.85 ± 0.43
7 | TGAAAAATAAATAAATGTACATATATATATATATAC [XGTACX_site7310] | 9.02 ± 0.27
8 | AAAAGGTTATCAATATGTACATATTTTTTTATTTTT [XGTACX_site3277] | 8.79 ± 0.49
9 | AGAAATACAAAATAAATATAAGAAACAAAATATTTA [CACACA_negctrl_site780] | 8.73 ± 0.49
10 | TTTTAATTAAAACACACACACACATATATATATATA [CACACA_site2291] | 9.83 ± 0.18
11 | TATTTCATCATATTGTGTACTTAATTTATATAATTA [XGTACX_site5753] | 8.66 ± 0.47
12 | TGATAATTTTTTACATGTACAAGTTTGTTTTTGCAT [XGTACX_site125] | 9.09 ± 0.46
13 | TTATCGGTATAATATAGTACATATAGATATATAATA [XGTACX_site1440] | 8.68 ± 0.41
14 | GATAAAATGGATGGATGTACATTATTTCCATATAAT [XGTACX_site7781] | 8.77 ± 0.44
15 | ATATTACTTCCTAAGTGTACAAGTAAGGAGAAAAAA [XGTACX_site3921] | 8.77 ± 0.45
16 | AAAAAAAAAAAAAACACACACACAAAATAAACAAAC [CACACA_site2720] | 9.66 ± 0.44
17 | AGATGTTTTTATATATGTACTTAAATACACAAATAT [XGTACX_site8250] | 8.7 ± 0.43
18 | AAAAAAAAAAAAATGTAATTTTTTAATTATTTATAT [GTGCAC_negctrl_site436] | 8.07 ± 0.46
19 | CATATATTTTTGTATAGTACTTTTTTTATTCGTTTT [XGTACX_site1860] | 8.84 ± 0.54

Row | Sequence | gcPBM binding intensity (ln)
20 | ATAATGGAGAAATAAGCATGCATTATATTATAAAAA [TGCATGCA_site325] | 8.88 ± 0.49
21 | AATTTCTATTTTGTGAGTACATACTCCTATTATATA [XGTACX_site3210] | 8.88 ± 0.47
22 | TAAAAGTTAATATAAACACACAAAAATTAATAAATA [CACACA_site6316] | 8.73 ± 0.45
23 | TGAATATTTCTATATACACACATATAAATATAAATA [CACACA_site7593] | 8.72 ± 0.41
24 | TATAATGAGAAGATATAATATATAGGGGGTAATTCT [GTGCAC_negctrl_site228] | 9.23 ± 0.18
25 | ATATATATATATATATGTACTTATTTGTATAAATAC [XGTACX_site8031] | 9.54 ± 0.29
26 | TTTTTTTCATAAGAAGCACACAAAAAATGATAGAGA [CACACA_site8401] | 8.63 ± 0.48
27 | TAGATTTTTATGCGTGCACACATTTAAAAAAAAAAC [CACACA_site3421] | 9.01 ± 0.41
28 | ATACCTACATACATACGTACATATATATATATAATG [XGTACX_site234] | 9.08 ± 0.28
29 | AAATATAATAACATAACACACACATGTATTTATAGG [CACACA_site8009] | 9.28 ± 0.38
30 | TTTTAATAAATTCAAAACATAAAAAGGAAAAAAAAA [XGTACX_negctrl_site471] | 8.29 ± 0.6
31 | TATTGGAAAATTAGAAGTACTTTCATATATTAGACT [XGTACX_site4503] | 8.51 ± 0.42
32 | TTTTTATTATTCCATAGTACAGAAAAAATGATATAT [XGTACX_site3431] | 8.31 ± 0.38
33 | ATTCTTTATTATTCGCCACACACATATATATATATA [CACACA_site9009] | 9.45 ± 0.38
34 | TGTAGTCTGGAGAAAAGTACACAGTATCTGGTAACC [XGTACX_site2033] | 8.8 ± 0.47
35 | ATATAGAATAAAACTATACACACCTATATTTAAACA [CACACA_site1902] | 8.91 ± 0.4
36 | ATATAAAAAAATAATAAATAAATAAAAAGATTTCTT [XGTACX_negctrl_site110] | 8.46 ± 0.49
37 | TATATTAATAAAGGTACTACACGGAAATGGAAATAT [XGTACX_site7760] | 8.98 ± 0.37
38 | CTTGTATAGAAACACACACACACTTTCTTTTTTTAA [CACACA_site1964] | 9.4 ± 0.28

Row | Sequence | gcPBM binding intensity (ln)
39 | AATTTGAAATATGTGGTGCAGTTATATAATATGTTT [GTGCAC_site9885] | 8.87 ± 0.41
40 | ATATTTTCCCTTGTTTTACACACGTGCTGATATGAG [CACACA_site8672] | 9.52 ± 0.35
41 | TAATAAATAAATGACACACACACACGCAAAAAAAAA [CACACA_site7275] | 9.94 ± 0.19
42 | AACAAATACGAACACACACACACACTAAAAAAAAAA [CACACA_site6386] | 10.3 ± 0.2
43 | ATAATATGAAAACACACACACACACCCAAAAAAAAA [CACACA_site2011] | 10.1 ± 0.15
44 | CACATTAATTTTTGGGTGCACTTGGGAAATTTTGGT | 8.75 ± 0.33
45 | ATATATATTATATATATATATATATATATATATATA [CACACA_negctrl_site493] | 9.32 ± 0.23
46 | AGGATATAATACCATACACACATTTATAAAATAACA [CACACA_site1930] | 9.09 ± 0.47
47 | TGTAATCAAAAAAATAGTACATAAATTGTGTATACT [XGTACX_site5908] | 8.71 ± 0.44
48 | CATACATAGATATATACACACATACCTATAAATACA [CACACA_site6513] | 9.31 ± 0.27
49 | TATATATGTGTTATATACCCTTTTTTATATATTAAT [XGTACX_negctrl_site313] | 8.78 ± 0.45
50 | TAAAAATCCACAAGCACACAAATGTACATATATATA [CACACA_site2462] | 9.04 ± 0.39
51 | TACGTCTTTTTTTTGGTGCATAATTTTTTTGTACAA | 8.78 ± 0.42
52 | TACACGTTCTACATTTGTACTTAATTTATACATAAG [XGTACX_site1579] | 8.94 ± 0.45
53 | AATTTTGTTAAAAGGACACACAATTCAATATATTAA [CACACA_site647] | 8.69 ± 0.45
54 | ATTACATGATATATCACACACACATATAGATATATA [CACACA_site7352] | 9.5 ± 0.31
55 | GCTATTAATTTATAAGCACACAATATAAATATATAT [CACACA_site2251] | 8.71 ± 0.35
56 | TATGTCGACATTTAAAGTACAAAAAAAAAAAAAAAA [XGTACX_site8985] | 8.44 ± 0.53
57 | TATATTAAAATATTCACACACTAACGTAAATCATTG [CACACA_site5520] | 8.79 ± 0.45
